Assay results published in the BET-seq Pho4 binding data (Le et al. 2018).
Some of the results follow. The energies were worked out here from pooled read counts, against the library average; single values are noisy.

biological target: T1, Pho4 (S. cerevisiae) (UniProt P07270); assay: relative binding free energy (BET-seq); higher = weaker binding; settings: reference: library average
T1 sequence: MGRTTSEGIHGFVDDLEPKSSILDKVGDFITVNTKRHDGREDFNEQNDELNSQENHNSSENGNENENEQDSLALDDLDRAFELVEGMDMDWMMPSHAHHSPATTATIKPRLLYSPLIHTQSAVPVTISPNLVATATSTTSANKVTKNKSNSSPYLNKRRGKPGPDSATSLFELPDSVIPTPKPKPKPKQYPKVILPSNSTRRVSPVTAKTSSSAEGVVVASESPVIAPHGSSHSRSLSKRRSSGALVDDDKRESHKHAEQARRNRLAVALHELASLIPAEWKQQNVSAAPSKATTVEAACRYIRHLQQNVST

| Sequence | relative binding free energy [kcal/mol] |
| --- | --- |
| CGTAACACGTGTGGAG | -0.04 |
| TTAGCCACGTGGTTGA | -0.22 |
| ATGGTCACGTGTAAGA | 0.22 |
| CAAATCACGTGATGGG | 0.27 |
| TTTGTCACGTGAGCAG | 0.24 |
| GGGGGCACGTGTTTGT | -0.09 |
| AGGAGCACGTGTAATG | 0.1 |
| TGTGCCACGTGCATGT | -0.15 |
| GTGGCCACGTGGTTAT | 0.01 |
| TTCAGCACGTGTTTTG | -0.01 |
| AAGGCCACGTGGTTGT | -0.16 |
| TGGTCCACGTGACGGG | 0.19 |
| TGAAGCACGTGTTATT | -0.14 |
| GGCCTCACGTGGGTTG | 0.15 |
| GCGAACACGTGGTTGG | 0.05 |
| GTGGACACGTGATGAG | 0.22 |
| GTGTGCACGTGGCGGC | -0.02 |
| TGAATCACGTGTGTTA | 0.14 |
| TATGTCACGTGCAGTG | 0.06 |
| ACGATCACGTGTTGGG | 0.13 |
| CTGTACACGTGTATTT | 0.12 |
| ATTATCACGTGCGTAT | 0 |
| GAGTTCACGTGGTAGC | 0.32 |
| AAATGCACGTGTAGAG | 0.19 |
| TGGACCACGTGGGTGC | -0.26 |

| Sequence | relative binding free energy [kcal/mol] |
| --- | --- |
| TTAGACACGTGAATTG | 0.26 |
| TGTGGCACGTGTTCCT | -0.1 |
| TATCTCACGTGTAGTA | 0.18 |
| CGGGGCACGTGTTTGG | -0.1 |
| ATGTGCACGTGTGCAT | 0.02 |
| TTAAGCACGTGTCGGT | -0.01 |
| TAGGTCACGTGATTAT | 0.25 |
| ATGATCACGTGGAGGG | 0.11 |
| GGGGGCACGTGGTTCG | -0.12 |
| GGGAACACGTGGAGTG | 0.03 |
| GAGTGCACGTGGAGGG | -0.02 |
| TCGGACACGTGTTGGG | 0.14 |
| GGAGTCACGTGTGTTT | 0.24 |
| ATGGTCACGTGGCGTG | -0.07 |
| GTGAGCACGTGATTGT | 0.04 |
| ATATTCACGTGGGCCG | 0.13 |
| TGTTCCACGTGGAGGG | 0.09 |
| GTTTACACGTGTAGGC | 0.17 |
| CATTCCACGTGTTGTG | 0.12 |
| TAGTACACGTGAGGTA | 0.09 |
| AATGGCACGTGAATGA | 0.22 |
| GGAGTCACGTGATATT | 0.16 |
| TGTGACACGTGTCTGG | 0.12 |
| ACTGTCACGTGGTTAG | -0.06 |
| AGCGCCACGTGTTTGG | -0.13 |

| Sequence | relative binding free energy [kcal/mol] |
| --- | --- |
| GACGTCACGTGTGATG | 0.29 |
| GCAGTCACGTGGGTTG | 0 |
| TATTACACGTGTATTA | 0.03 |
| GTCTGCACGTGTGGAT | 0.05 |
| TCAAACACGTGGGGTG | -0.12 |
| AGTGCCACGTGCGGTC | 0.12 |
| ATGAACACGTGTTGAG | 0.05 |
| TTAGGCACGTGGAGGG | -0.1 |
| ATGTGCACGTGGTAGC | -0.12 |
| TGAAACACGTGGGTGT | -0.12 |
| AGGTTCACGTGCCTGT | 0.09 |
| TAAGCCACGTGGAGGG | -0.15 |
| AGTAGCACGTGTGCTG | -0.06 |
| TAGTCCACGTGTGGTG | 0.04 |
| TGTTTCACGTGTGCAT | 0.23 |
| TGGGTCACGTGGAGCT | 0.02 |
| CGGGGCACGTGCGGCG | -0.29 |
| GTTTTCACGTGGTTCT | 0.27 |
| GTGTTCACGTGGGTAT | 0.22 |
| ATAGACACGTGGTAAT | -0.1 |
| TAATGCACGTGATGCT | 0.14 |
| TGAGTCACGTGACTGG | 0.27 |
| CTCCGCACGTGGGGGG | -0.34 |
| GAGGTCACGTGTGAGA | 0.23 |
| CTGCTCACGTGTAGGT | 0.22 |

| Sequence | relative binding free energy [kcal/mol] |
| --- | --- |
| TTGGTCACGTGGGCTC | -0.03 |
| TTAGGCACGTGATGAT | 0.11 |
| TGTAGCACGTGTTAAG | -0.11 |
| GGGCGCACGTGGATAG | 0.06 |
| ATTACCACGTGTTGTT | -0.13 |
| GGTATCACGTGAGATA | 0.38 |
| ATGCTCACGTGCGGTT | 0.17 |
| AGGAACACGTGGATGA | 0.13 |
| TTATGCACGTGGCTTA | -0.19 |
| AGAGGCACGTGGTCAA | -0.1 |
| ATTTACACGTGGGGGA | -0.01 |
| CTGGTCACGTGATAAG | 0.15 |
| GTTAGCACGTGTTTGC | -0.01 |
| TTGATCACGTGTGGAA | 0.32 |
| ATCGGCACGTGGAATT | 0.13 |
| ATTGCCACGTGGGGCG | -0.32 |
| TTATACACGTGGCGGA | 0.08 |
| GTGCGCACGTGTTGCT | -0.09 |
| AATTACACGTGTGATA | 0.24 |
| GTTGCCACGTGCAGGG | -0.2 |
| CTGCGCACGTGGGGTG | -0.35 |
| CGTAACACGTGGGGTT | -0.16 |
| CAGTGCACGTGAGGAT | 0.13 |
| TTCAACACGTGGTGTA | -0.1 |
| TGAATCACGTGGAAGT | 0.22 |

| Sequence | relative binding free energy [kcal/mol] |
| --- | --- |
| GGGGGCACGTGTCTAG | -0.11 |
| CGGTCCACGTGTATTG | 0.06 |
| GGGTTCACGTGTGAGT | 0.39 |
| CGGAGCACGTGGTGGT | -0.02 |
| GTGCTCACGTGGTGTT | 0.1 |
| GTTTTCACGTGTGCAG | 0.31 |
| TCATTCACGTGTTTTA | 0.14 |
| AGCTTCACGTGGATGG | 0.28 |
| AAGTTCACGTGATATA | 0.39 |
| TAAGTCACGTGGGTCA | 0.03 |
| TGTAGCACGTGAAAGG | 0.15 |
| TTTGCCACGTGCAGGG | -0.13 |
| TGCATCACGTGGATGT | -0.07 |
| CTGGGCACGTGGGCGG | -0.21 |
| TTGGGCACGTGAGCAA | 0 |
| GTTTTCACGTGATAAA | 0.34 |
| AAAGGCACGTGCTGGA | -0.14 |
| AACGTCACGTGAGTGT | 0.2 |
| TGTAACACGTGGGTAA | -0.13 |
| TTTTTCACGTGAGGCA | 0.34 |
| TTCGGCACGTGCGTAT | -0.19 |
| TCTTACACGTGGGTGC | 0.03 |
| AGGTTCACGTGGTTAG | 0.39 |
| ATACGCACGTGATGTG | 0.01 |
| GGAGTCACGTGAAGGA | 0.39 |

| Sequence | relative binding free energy [kcal/mol] |
| --- | --- |
| TTAAGCACGTGCGAGT | -0.05 |
| ATGTTCACGTGATGGG | 0.3 |
| CGTTGCACGTGTGGGA | 0.1 |
| CGTGGCACGTGTGTTG | -0.04 |
| GTGGTCACGTGTACTT | 0.29 |
| GGGCGCACGTGCTGGC | -0.13 |
| GTTTGCACGTGGTCTT | -0.01 |
| GTTCACACGTGGAGTG | -0.04 |
| TATATCACGTGGAGCG | 0.22 |
| GGAAACACGTGGTGCG | -0.1 |
| TGATCCACGTGGTAAG | 0.21 |
| AGGCCCACGTGGTGTG | -0.35 |
| ATGCTCACGTGGAGTT | 0.22 |
| TGGTTCACGTGGCTTG | 0.22 |
| TGGAACACGTGTTCAG | 0.1 |
| ATTTGCACGTGAGGAA | 0.3 |
| GGTTCCACGTGGAAGG | 0.12 |
| AATTGCACGTGCGGAT | 0.03 |
| TTTCACACGTGGGTAG | -0.11 |
| GGGCTCACGTGAATGG | 0.3 |
| GGAGACACGTGGTGGT | -0.06 |
